Results reported in PubChem BioAssay (NCI).
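In this assay, cells in 96-well plates receive the compound at five concentrations for 48 hours. Endpoints are linearly interpolated between the surrounding concentrations. The concentration for 50% growth inhibition is given as GI50. TGI denotes the concentration required for complete inhibition of growth.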

Each molecule was assayed on NCI-H322M lung (assay: NCI-60 cell line screen, 48 h).

| Compound | GI50 [nM] | TGI [µM] |
| --- | --- | --- |
| Cc1ccc2sc3c(c2c1)OC(N)=C(C#N)C3c1cccc(F)c1 (stereo not drawn) | 903 | 39 |
| CCOP(=O)(OCC)OC[C@]12CCC(C)(C)C=C1[C@H]1CC[C@@H]3[C@@]4(C)CC[C@H](OP(=O)(OCC)OCC)C(C)(C)[C@@H]4CC[C@@]3(C)[C@]1(C)CC2 | 1560 | 2.94 |
| Cc1ccc2c(n1)C(=O)C(Cl)=C(Nc1ccc(C(=O)OC(C)(C)C)cc1)C2=O | > 92500 | > 92.5 |
| COc1ccc2[nH]cc(-c3cc(N)n4nc(-c5c[nH]c6ccc(OC)cc56)cc4n3)c2c1 | 2200 | 5.42 |
